From the supplement of paper PMC10126150
Values marked as one replicate rest on one cluster of the flow cell; about a third of the high ones do not repeat.

Test system: ATP
Assay: switch fluorescence ratio, 500 uM ATP over buffer (Cy3 cluster intensity, sum of 5 cycles each) (fold (ratio)); higher = stronger signal-on switching upon ATP binding; sequences stand for … in TCGTCGGCAGCGTCAGATGTGTATAAGAGACAGTTTTTTTTTTTTTTTTTTTTTTTTT…TC
Conditions: aptamer strand: ATP DNA aptamer (quencher-CACCTGGGGGAGTATTGCGGAGGAAGG + anchor), 100 nM annealed; ATP concentration: 500 uM; one replicate
How it was run: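 Values give the fluorescence ratio for each switch-domain sequence, averaged from per-cluster ratios of summed target-cycle to summed buffer-cycle Cy3 intensity. The Cy3-labelled switching-strand clusters sat on a modified Illumina MiSeq flow-cell, were annealed to 100 nM quencher-labelled ATP aptamer, and were imaged in selection buffer, then after 15 min with 500 uM ATP at 22 °C. Five cycles ran with NaOH stripping and re-annealing between them, and clusters outside 100-1000 RFU were excluded.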
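Further: ATP exposure 15 min at 22 °C before imaging.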

Sequence: CATTGACGAG
- switch fluorescence ratio: 0.974

Sequence: GGTGCCGCCA
- switch fluorescence ratio: 1.02

Sequence: TGGCTGAATT
- switch fluorescence ratio: 0.991

Sequence: AACGGCAGTA
- switch fluorescence ratio: 1.03

Sequence: TGGAGTATAT
- switch fluorescence ratio: 1.01

Sequence: CATTGATGAC
- switch fluorescence ratio: 1

Sequence: TCTTCAGGCC
- switch fluorescence ratio: 0.976

Sequence: GTTCTCACAG
- switch fluorescence ratio: 1

Sequence: CTGGTCCGAC
- switch fluorescence ratio: 1.34

Sequence: ATAGTATAA
- switch fluorescence ratio: 1.04

Sequence: GGATCTGGGT
- switch fluorescence ratio: 1.05

Sequence: GACTACTCTA
- switch fluorescence ratio: 1.08

Sequence: CAAGTGACGG
- switch fluorescence ratio: 0.96

Sequence: ACTCGCTCGT
- switch fluorescence ratio: 0.964

Sequence: GCCTAACGGA
- switch fluorescence ratio: 1.08

Sequence: GCCTGCTACT
- switch fluorescence ratio: 1.02

Sequence: GTTCAGTTGT
- switch fluorescence ratio: 1.02

Sequence: CGATCTTAAG
- switch fluorescence ratio: 0.959

Sequence: TTCGCTTCAG
- switch fluorescence ratio: 0.987

Sequence: TTTCAGCTTT
- switch fluorescence ratio: 1.04

Sequence: ACCGGCTTGG
- switch fluorescence ratio: 0.953

Sequence: GGTCG
- switch fluorescence ratio: 1.02

Sequence: TCGCAACTTG
- switch fluorescence ratio: 1.58

Sequence: TGAGCATGCG
- switch fluorescence ratio: 1.07

Sequence: TGCTTGGCAA
- switch fluorescence ratio: 1.06

Sequence: GACGCACAGG
- switch fluorescence ratio: 1.58

Sequence: GCCATACAAT
- switch fluorescence ratio: 0.993

Sequence: GGTAGTTGAT
- switch fluorescence ratio: 0.988

Sequence: GCACATCCTA
- switch fluorescence ratio: 1.12

Sequence: AGATTATTAC
- switch fluorescence ratio: 1.01

Sequence: CTGCGCCTCC
- switch fluorescence ratio: 2.38

Sequence: TGAGTAATT
- switch fluorescence ratio: 1.01

Sequence: GGTGCGTCCA
- switch fluorescence ratio: 0.957

Sequence: CGCGCCTTGA
- switch fluorescence ratio: 0.994

Sequence: CGGGTATCGT
- switch fluorescence ratio: 0.987

Sequence: ATTAGTGTGT
- switch fluorescence ratio: 0.975

Sequence: CGTTCCGGAT
- switch fluorescence ratio: 1.07

Sequence: GCTGGGCCTC
- switch fluorescence ratio: 0.967

Sequence: TCAAGGGCCT
- switch fluorescence ratio: 1.04

Sequence: GGAAGACCAC
- switch fluorescence ratio: 1.07

Sequence: ATACTAGTGT
- switch fluorescence ratio: 0.985

Sequence: CAAAGACTGA
- switch fluorescence ratio: 0.972

Sequence: ACACCAAGCG
- switch fluorescence ratio: 1.07

Sequence: CCAAGACTTC
- switch fluorescence ratio: 1.17

Sequence: CACGCGCTGT
- switch fluorescence ratio: 1.02

Sequence: AGTGGCCGG
- switch fluorescence ratio: 0.938

Sequence: ATCCAAAAGG
- switch fluorescence ratio: 0.977

Sequence: CGCCTCGGTT
- switch fluorescence ratio: 0.962

Sequence: ATTTCTCCTC
- switch fluorescence ratio: 1.03

Sequence: AGCCCGTGCG
- switch fluorescence ratio: 1.05

Sequence: GGGGAGAGCA
- switch fluorescence ratio: 0.989

Sequence: TAGGCAGTGC
- switch fluorescence ratio: 1.1

Sequence: GGCCGGGGTC
- switch fluorescence ratio: 1.07

Sequence: GCCACTATTT
- switch fluorescence ratio: 1.01

Sequence: CATAAACTTT
- switch fluorescence ratio: 1.02

Sequence: GAGCCAGGA
- switch fluorescence ratio: 0.996

Sequence: TGCGTTCTCT
- switch fluorescence ratio: 0.99

Sequence: GTGAAATGGT
- switch fluorescence ratio: 1.02

Sequence: ATAAGTCGG
- switch fluorescence ratio: 0.986

Sequence: CATTACCGTG
- switch fluorescence ratio: 0.974

Sequence: TGTCTAAAGT
- switch fluorescence ratio: 0.986

Sequence: AGAAGTATGA
- switch fluorescence ratio: 1.03

Sequence: CAGGGGTCCA
- switch fluorescence ratio: 1.03

Sequence: ATGCCCCGCA
- switch fluorescence ratio: 1.02

Sequence: TATTGTTCAC
- switch fluorescence ratio: 1.03

Sequence: AACGACCGGG
- switch fluorescence ratio: 1.05

Sequence: TTTATTCATC
- switch fluorescence ratio: 0.977

Sequence: TCTGTTTATA
- switch fluorescence ratio: 0.979

Sequence: ATAAAAGGTC
- switch fluorescence ratio: 0.977

Sequence: TAGTCGGGAA
- switch fluorescence ratio: 0.963

Sequence: TTATGAAAAA
- switch fluorescence ratio: 0.986

Sequence: ACTAGATCGT
- switch fluorescence ratio: 1.04

Sequence: AATTGTCATC
- switch fluorescence ratio: 0.982

Sequence: TAGGCCACGG
- switch fluorescence ratio: 1.02

Sequence: ATCTGGGAG
- switch fluorescence ratio: 0.965

Sequence: GGGCATGTA
- switch fluorescence ratio: 1.02

Sequence: CAAAATTTCT
- switch fluorescence ratio: 1

Sequence: CTCTAGTCAT
- switch fluorescence ratio: 1.06

Sequence: CCGGGTTCAG
- switch fluorescence ratio: 1.07

Sequence: TCATGCAAGG
- switch fluorescence ratio: 1.03

Sequence: GAGTCTGGTC
- switch fluorescence ratio: 1.01

Sequence: AGAGGTGTCA
- switch fluorescence ratio: 0.993

Sequence: CGGTACGGAA
- switch fluorescence ratio: 0.988

Sequence: TTGTGATCAA
- switch fluorescence ratio: 1.02

Sequence: CGAGTGTGGT
- switch fluorescence ratio: 0.978

Sequence: CAATGGCGCG
- switch fluorescence ratio: 1.05

Sequence: CGTTACGGTG
- switch fluorescence ratio: 1.01

Sequence: TTATCTGCAA
- switch fluorescence ratio: 2.45

Sequence: TTAGCGGGCT
- switch fluorescence ratio: 1.07

Sequence: GGATTAGAGA
- switch fluorescence ratio: 1.01

Sequence: TCTTCTCGGA
- switch fluorescence ratio: 0.996

Sequence: ATTGTCAGAT
- switch fluorescence ratio: 0.964

Sequence: TCTTCTTAGT
- switch fluorescence ratio: 0.995

Sequence: CGAGAGGCTG
- switch fluorescence ratio: 0.978

Sequence: TTACCGGAGA
- switch fluorescence ratio: 1.07

Sequence: ATGTGTATGT
- switch fluorescence ratio: 0.998

Sequence: TTGTATCGAC
- switch fluorescence ratio: 1.05

Sequence: GCTTTCTGGG
- switch fluorescence ratio: 0.982

Sequence: TGATCATTGT
- switch fluorescence ratio: 1.04

Sequence: ACAGAGCGCT
- switch fluorescence ratio: 1.05

Sequence: ACTACACTAA
- switch fluorescence ratio: 1.29

Sequence: TGGATGGGAC
- switch fluorescence ratio: 0.966

Sequence: GCAAGAAGTG
- switch fluorescence ratio: 0.991

Sequence: GGCCGAGGGA
- switch fluorescence ratio: 1

Sequence: GATTTCACGA
- switch fluorescence ratio: 1.03

Sequence: ATGCCATCGT
- switch fluorescence ratio: 0.954

Sequence: TTGGCAATG
- switch fluorescence ratio: 1.04

Sequence: GTGGGTGTTA
- switch fluorescence ratio: 0.993

Sequence: CGTACTCGGA
- switch fluorescence ratio: 1.01

Sequence: GCGCTCTAGC
- switch fluorescence ratio: 1

Sequence: CGTGGTGAGA
- switch fluorescence ratio: 1.05

Sequence: TATTGACTTA
- switch fluorescence ratio: 0.968

Sequence: GTCGGAGCAT
- switch fluorescence ratio: 1.04

Sequence: ATTTGCGGTC
- switch fluorescence ratio: 1.01

Sequence: CTAAGGACG
- switch fluorescence ratio: 1.04

Sequence: AGGCGTAGAC
- switch fluorescence ratio: 0.985

Sequence: ACCCAATGTT
- switch fluorescence ratio: 1.03

Sequence: AGTGTATGAC
- switch fluorescence ratio: 1

Sequence: GATTTAGTG
- switch fluorescence ratio: 1.02

Sequence: GTTGCGTGTA
- switch fluorescence ratio: 0.985

Sequence: ACCTGTAAT
- switch fluorescence ratio: 0.986

Sequence: CGTAACACCG
- switch fluorescence ratio: 1.01

Sequence: TGCGAGGAGG
- switch fluorescence ratio: 1.02

Sequence: ATTGCAGTTA
- switch fluorescence ratio: 1.01

Sequence: CGGGAATGCG
- switch fluorescence ratio: 1.04

Sequence: TCTTAAGGGG
- switch fluorescence ratio: 1.36

Sequence: TATCGGTCC
- switch fluorescence ratio: 0.963

Sequence: GAACATGGCA
- switch fluorescence ratio: 0.969

Sequence: GCACCCGCCC
- switch fluorescence ratio: 1.24

Sequence: CATTCAGAAT
- switch fluorescence ratio: 1.01

Sequence: GGCTGCAAGC
- switch fluorescence ratio: 1.05

Sequence: TCACTGTGCC
- switch fluorescence ratio: 1.02

Sequence: ATTGAGTACG
- switch fluorescence ratio: 0.928

Sequence: AATGTCAAGG
- switch fluorescence ratio: 1.02

Sequence: TGTAATCTCA
- switch fluorescence ratio: 1.03

Sequence: TGGTAGTGG
- switch fluorescence ratio: 1.11

Sequence: CAAGCGTCTC
- switch fluorescence ratio: 0.991

Sequence: TTGTTGGC
- switch fluorescence ratio: 1.05

Sequence: AATTCATAT
- switch fluorescence ratio: 0.964

Sequence: AATTGGAGG
- switch fluorescence ratio: 0.973

Sequence: CGAACTCCTT
- switch fluorescence ratio: 1

Sequence: TTAAACGTTG
- switch fluorescence ratio: 0.982

Sequence: TGCGCGAATG
- switch fluorescence ratio: 0.969

Sequence: GGCTTCTATG
- switch fluorescence ratio: 0.957

Sequence: CAGGTAGTAT
- switch fluorescence ratio: 0.998

Sequence: ATATGAACTA
- switch fluorescence ratio: 1.02

Sequence: AGAAGGGTCC
- switch fluorescence ratio: 1.06

Sequence: GCTGCACCGA
- switch fluorescence ratio: 1.05

Sequence: TCCTACGTCT
- switch fluorescence ratio: 1.2

Sequence: TATATCTTTA
- switch fluorescence ratio: 1.03

Sequence: TATCGCGCGC
- switch fluorescence ratio: 0.98

Sequence: GTGAAATTCA
- switch fluorescence ratio: 1.01

Sequence: GAGCGACGTG
- switch fluorescence ratio: 0.926

Sequence: TCGGAGTTGT
- switch fluorescence ratio: 1.06

Sequence: ATTAAATTGA
- switch fluorescence ratio: 1.01

Sequence: GTTAGGAGGT
- switch fluorescence ratio: 0.981

Sequence: GCATAAAAAA
- switch fluorescence ratio: 0.97

Sequence: CTGGATAAC
- switch fluorescence ratio: 1.02
